Measurements published in the supplement of paper PMC3334620.
The full ranking holds about 33,000 sequences; the median of “E-score (-0.5 to 0.5)” is about -0.054, and the highest 2% start at about 0.35. This is one part of the list.

What follows are sequences tested against T1, Stb5 (UniProt P38699) (assay: PBM E-score (8-mer binding enrichment) (E-score (-0.5 to 0.5)); higher = stronger / more preferred TF binding; most listed sequences are background and not binding sites). Conditions: protein concentration: 200 nM; construct: GST-full length.
T1 sequence: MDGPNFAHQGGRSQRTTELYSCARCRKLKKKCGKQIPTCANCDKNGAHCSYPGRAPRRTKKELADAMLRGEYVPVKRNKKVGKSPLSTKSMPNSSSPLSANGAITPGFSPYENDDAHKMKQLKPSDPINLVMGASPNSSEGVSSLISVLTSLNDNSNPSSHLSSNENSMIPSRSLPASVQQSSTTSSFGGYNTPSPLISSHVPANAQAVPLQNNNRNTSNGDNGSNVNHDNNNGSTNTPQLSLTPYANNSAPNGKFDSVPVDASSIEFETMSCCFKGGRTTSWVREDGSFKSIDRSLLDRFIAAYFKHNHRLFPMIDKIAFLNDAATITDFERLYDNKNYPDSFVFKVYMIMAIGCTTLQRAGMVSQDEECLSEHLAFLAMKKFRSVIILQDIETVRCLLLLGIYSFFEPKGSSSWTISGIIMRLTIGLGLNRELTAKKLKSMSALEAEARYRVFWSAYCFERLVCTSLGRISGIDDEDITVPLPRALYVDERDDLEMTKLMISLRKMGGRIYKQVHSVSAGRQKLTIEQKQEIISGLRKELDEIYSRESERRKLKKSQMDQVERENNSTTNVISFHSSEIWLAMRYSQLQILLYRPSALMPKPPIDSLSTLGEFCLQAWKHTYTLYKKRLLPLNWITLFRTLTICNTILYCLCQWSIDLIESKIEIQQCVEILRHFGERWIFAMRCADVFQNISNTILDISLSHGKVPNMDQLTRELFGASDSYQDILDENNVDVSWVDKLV
In short: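 Bound GST-tagged yeast transcription factors, applied at about 100-200 nM to double-stranded universal all-10-mer Agilent arrays, were detected with fluorescent anti-GST. Scans were normalised with masliner. A modified Wilcoxon-Mann-Whitney statistic, the E-score, was assigned to each ungapped eight-base word pooled with its reverse complement by the Universal PBM Analysis Suite.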

Compared with CAGCGCCA, TCTTTAAA is lower in “PBM E-score” value: 0.116 for the first, -0.0495 for the second.

Going from AGGGTTTA to ATTGAGGG, the “PBM E-score” value falls from -0.028 to -0.117.

Going from ATAAGTAT to AGACTCAC, the “PBM E-score” value falls from -0.124 to -0.243.

Compared with CCGCTCCC, ATATCTAG is lower in “PBM E-score” value: 0.247 for the first, -0.106 for the second.

Compared with CTTCGTTA, CAGGTTAG is higher in “PBM E-score” value: -0.0578 for the first, 0.0211 for the second.

First: AAGACGGG
Second: GACCGTAA
The “PBM E-score” value of the first is lower: 0.155 for the first, 0.186 for the second.

Compared with AGACGGAC, CAGCTCTC is lower in “PBM E-score” value: 0.331 for the first, -0.249 for the second.

Going from GCATTACC to CAGCAGTA, the “PBM E-score” value falls from 0.0712 to -0.238.

Compared with AAATCTTG, TAGGACTA is higher in “PBM E-score” value: -0.0662 for the first, -0.0597 for the second.

Compared with ATCCCCCA, GAACGCCC is higher in “PBM E-score” value: -0.265 for the first, -0.0162 for the second.

Going from ACTGGAAG to GCCTAAGC, the “PBM E-score” value rises from -0.182 to 0.053.

First: AATTACGT
Second: ATGTGATA
The “PBM E-score” value of the first is higher: -0.15 for the first, -0.21 for the second.

First: ACGAGCGC
Second: AATTTGGC
The “PBM E-score” value of the first is higher: 0.103 for the first, -0.092 for the second.

Compared with CTCGCTTC, ACGGTAGC is lower in “PBM E-score” value: 0.0542 for the first, 0.00794 for the second.

Going from ACATATGG to GGCGCAGA, the “PBM E-score” value rises from -0.0647 to -0.0492.

Compared with CTACAACC, AACGTCGA is lower in “PBM E-score” value: -0.0393 for the first, -0.175 for the second.

Compared with CAAACGTG, CACAATAG is higher in “PBM E-score” value: -0.236 for the first, -0.0261 for the second.

Compared with TAGCATAA, GGCCGGAA is higher in “PBM E-score” value: -0.0636 for the first, 0.193 for the second.

First: CGGCGCCC
Second: AGCGGATA
The “PBM E-score” value of the first is lower: 0.125 for the first, 0.286 for the second.

Compared with ATCGGGGA, CGGCTCTC is lower in “PBM E-score” value: 0.307 for the first, -0.0773 for the second.

First: GAGCTCAA
Second: ACGTTCCT
The “PBM E-score” value of the first is higher: 0.0147 for the first, -0.244 for the second.

Compared with CTAACAAG, ACCAAGAG is lower in “PBM E-score” value: -0.159 for the first, -0.245 for the second.

First: GGAATACA
Second: AGAGGCGC
The “PBM E-score” value of the first is higher: 0.179 for the first, -0.0702 for the second.

First: ACGACCAC
Second: GGCTAGAA
The “PBM E-score” value of the first is lower: -0.177 for the first, 0.026 for the second.

Going from ACGCCCCT to AGAGTGAA, the “PBM E-score” value falls from -0.156 to -0.172.

Compared with GCAACAAA, CGAAGCTA is higher in “PBM E-score” value: -0.0939 for the first, -0.0903 for the second.

Compared with CGCCTCTA, CCGACAGA is higher in “PBM E-score” value: -0.0163 for the first, 0.345 for the second.

First: CCCCACAA
Second: ATGCTTGC
The “PBM E-score” value of the first is higher: -0.129 for the first, -0.272 for the second.

First: ACATTACG
Second: AGGATCCT
The “PBM E-score” value of the first is higher: -0.0931 for the first, -0.175 for the second.

Compared with CTGTACAG, CTTTGGGA is higher in “PBM E-score” value: -0.16 for the first, -0.0262 for the second.

Compared with AACTTATC, ATCACCCC is higher in “PBM E-score” value: -0.0603 for the first, 0.296 for the second.

First: AGCCCAGA
Second: CTAAAAAC
The “PBM E-score” value of the first is lower: -0.178 for the first, -0.102 for the second.

Compared with CCTAGCCG, GCGCGTCC is lower in “PBM E-score” value: 0.201 for the first, -0.048 for the second.

Going from TCGTGTCA to ACTGATTA, the “PBM E-score” value falls from -0.132 to -0.201.

Compared with CCCTGCGC, ACGTTAAA is lower in “PBM E-score” value: -0.00976 for the first, -0.0243 for the second.

Going from AAACTATG to CCACGTAG, the “PBM E-score” value falls from -0.186 to -0.206.

First: CGTTAAAG
Second: CGTGCTTC
The “PBM E-score” value of the first is higher: -0.0182 for the first, -0.0683 for the second.

Compared with GCGCTTCA, AAGACCAA is lower in “PBM E-score” value: -0.031 for the first, -0.0734 for the second.

First: AAGGGGCG
Second: GAGACTGC
The “PBM E-score” value of the first is higher: 0.0495 for the first, -0.155 for the second.

Going from CATTTCTC to GCACTGCC, the “PBM E-score” value rises from -0.0296 to -0.00913.

Compared with TGAGAAAA, AACCCCCA is higher in “PBM E-score” value: -0.212 for the first, -0.0755 for the second.

Compared with CAGCGGCC, AAACCGAT is lower in “PBM E-score” value: 0.244 for the first, 0.121 for the second.

First: GCGGCTCA
Second: CGTTATAG
The “PBM E-score” value of the first is lower: 0.0543 for the first, 0.0772 for the second.

First: ATGTGGTG
Second: ACAACAGA
The “PBM E-score” value of the first is higher: -0.0674 for the first, -0.257 for the second.

Compared with CGCACCTA, TACCCGAA is lower in “PBM E-score” value: 0.207 for the first, 0.0648 for the second.

First: ACATATCG
Second: CGTACTTC
The “PBM E-score” value of the first is lower: -0.043 for the first, 0.083 for the second.

Going from ATAGGCAG to GAGGTTCA, the “PBM E-score” value rises from -0.225 to -0.0881.

Compared with AGGTGGGA, AATAAACA is higher in “PBM E-score” value: -0.176 for the first, 0.0948 for the second.

Going from ACCGCTGA to GGCATATA, the “PBM E-score” value rises from 0.255 to 0.285.

First: GTTCCAAA
Second: CTAGGGTA
The “PBM E-score” value of the first is higher: -0.0887 for the first, -0.137 for the second.

Compared with ACCTCGAC, AATCGGTG is higher in “PBM E-score” value: -0.207 for the first, 0.405 for the second.

Going from AATAGCAG to AGGACACC, the “PBM E-score” value rises from -0.0777 to 0.01.

Going from ATTCTATC to GATCATGC, the “PBM E-score” value falls from -0.172 to -0.195.

Compared with ATCTTTGA, GCCGACAA is higher in “PBM E-score” value: -0.157 for the first, 0.275 for the second.

First: AAGCCCGT
Second: GTCTTGAA
The “PBM E-score” value of the first is higher: 0.417 for the first, -0.118 for the second.

Going from AAGACTAG to CTTCAGCA, the “PBM E-score” value rises from -0.389 to -0.248.

Going from TAAAAACA to ACCCGATG, the “PBM E-score” value rises from -0.0391 to 0.212.

First: GCACAGCC
Second: CCAAACGC
The “PBM E-score” value of the first is higher: -0.0626 for the first, -0.103 for the second.

Going from TGGGTAAA to CGGCGACA, the “PBM E-score” value rises from -0.0212 to 0.316.

First: ACGTTGTG
Second: AATGGGAG
The “PBM E-score” value of the first is higher: -0.136 for the first, -0.172 for the second.

Compared with GACTCCGA, GAGAAATC is lower in “PBM E-score” value: 0.304 for the first, 0.0252 for the second.

Compared with ACGTCTCC, CTGATTCC is higher in “PBM E-score” value: -0.172 for the first, -0.141 for the second.

Compared with GAGGGCGA, CAGAGGTC is higher in “PBM E-score” value: -0.0578 for the first, 0.0405 for the second.

Compared with CACGCCAC, AAGCACGA is higher in “PBM E-score” value: -0.251 for the first, -0.143 for the second.

Compared with AAAACAAA, CGTCACGC is higher in “PBM E-score” value: 0.0144 for the first, 0.0357 for the second.

Compared with CCCGATCC, AATAGTTG is lower in “PBM E-score” value: 0.243 for the first, -0.103 for the second.

Compared with GCATTTAC, ACACCAAA is higher in “PBM E-score” value: -0.185 for the first, -0.077 for the second.

Going from GCTGGAAC to GCACGTGC, the “PBM E-score” value rises from -0.0574 to 0.164.

First: CGGATTCC
Second: AGGTAACC
The “PBM E-score” value of the first is higher: 0.17 for the first, -0.0413 for the second.

First: CGAGGAGA
Second: ACAGCGCG
The “PBM E-score” value of the first is lower: -0.107 for the first, 0.251 for the second.

First: ATCTGTGC
Second: AGGAAGTC
The “PBM E-score” value of the first is lower: -0.247 for the first, -0.209 for the second.

Going from AAGGCAAG to GCCCGACC, the “PBM E-score” value rises from -0.14 to 0.306.

First: CGCGCCTC
Second: AGTAATGA
The “PBM E-score” value of the first is higher: 0.0389 for the first, -0.141 for the second.

Compared with AGTAGATA, AAGTCAGT is lower in “PBM E-score” value: -0.0713 for the first, -0.0794 for the second.

Going from AGTTGCCC to GGGAAAAA, the “PBM E-score” value rises from -0.184 to 0.221.

Compared with AGCCCACC, ACATTGAT is lower in “PBM E-score” value: 0.104 for the first, -0.162 for the second.

First: TAGTCAAA
Second: CATTGAGC
The “PBM E-score” value of the first is lower: -0.148 for the first, -0.032 for the second.

Going from ACGGTCCT to CGAAGAGC, the “PBM E-score” value falls from 0.276 to 0.16.

First: CGATCTTA
Second: TTACGGAA
The “PBM E-score” value of the first is higher: 0.241 for the first, 0.022 for the second.

Going from CCGCGTAA to ATGCGCTA, the “PBM E-score” value falls from 0.222 to -0.0438.

Compared with CTTAAGAC, AACCGTGT is lower in “PBM E-score” value: 0.22 for the first, -0.115 for the second.

Going from AGTGCCGG to AAACCCAT, the “PBM E-score” value falls from 0.407 to -0.0199.

Compared with GTTTGCCA, ACGAGACG is higher in “PBM E-score” value: -0.0333 for the first, 0.047 for the second.

Compared with ATGATGGG, GCGTCAAC is higher in “PBM E-score” value: -0.133 for the first, 0.165 for the second.

First: AGCTTGAT
Second: CACTAAGC
The “PBM E-score” value of the first is lower: -0.206 for the first, -0.127 for the second.

First: ATAGCAAG
Second: CACGCAAG
The “PBM E-score” value of the first is higher: -0.0438 for the first, -0.164 for the second.
